The results in this text go back to PubChem BioAssay AID1240 (Sanford-Burnham Center for Chemical Genomics, 2008).

Among all 50,000 compounds or so, about 800 (1.6%) showed an effect of 50% or more. Some of the results follow.

The assay concerns the target Bcl-2-like protein 10 (Homo sapiens) (UniProt Q9HD36). Put plainly: Phenotype converters, Bcl-B/TR3 peptide binding displacement, primary biochemical FP (AID 1240).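 Also: 0% = Bcl-B with tracer peptide and DMSO and 100% = tracer peptide lacking Bcl-B.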 To be noted: GST-Bcl-B / FITC-TR3 peptide fluorescence polarization; stronger effect = higher value; compound at 3.75 mg/L.
Sequence of UniProt Q9HD36 (Q9HD36 whole entry, looked up): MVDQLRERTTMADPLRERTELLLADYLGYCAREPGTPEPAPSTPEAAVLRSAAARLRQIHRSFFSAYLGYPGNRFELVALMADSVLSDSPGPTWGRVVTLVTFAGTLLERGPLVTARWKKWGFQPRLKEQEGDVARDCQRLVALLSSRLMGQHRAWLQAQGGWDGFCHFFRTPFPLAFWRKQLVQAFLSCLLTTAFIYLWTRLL
Take `Cc1ccc(Oc2nc3ccccc3n3cnnc23)cc1`: the displacement was -8.2%.

In the case of `O=C(c1cccc(F)c1)N1CCN(C2CCCCC2)CC1`, the displacement was -12%.

Regarding `Fc1cccc(-c2nnc(SCc3ccccc3Cl)n2-c2ccccc2)c1`, the displacement was -10.7%.

With `CC(C)(C)C1CCc2c(sc3ncn4c(=S)[nH]nc4c23)C1` (stereo not drawn), the displacement is -5.7%.

Regarding `CN1c2ccccc2N(C)C1(C)c1cccc2ccccc12`, the displacement worked out at 23.9%.

Regarding `CCN=C1SC(CC(=O)Nc2ccc(N3CCOCC3)cc2)C(=O)N1CC` (stereo not drawn), the displacement is -2.3%.

On to `Cc1ccc(N2NC(=O)/C(=C/c3ccc(C)c([N+](=O)[O-])c3)C2=O)cc1Cl`, for which the displacement worked out at 13.1%.

As to `O=S(=O)(CCc1ccccc1)/N=C/c1cc(Br)ccc1O`, the displacement is 4.5%.

On to `Cc1ccc2c(c1)C(=Cc1nc3ccccc3c(=O)n1-c1ccccc1[N+](=O)[O-])C(=O)N2`, for which the displacement is -15.3%.

For the compound `COc1ccc(N(CC(=O)NCc2ccccc2OC)S(=O)(=O)c2ccccc2)c(OC)c1`, the displacement was -4.1%.

`CCc1c(O)nc(SCC(=O)N2CCOCC2)n(-c2ccccc2)c1=O`: the displacement was -4.1%.

As for `C(#CCn1c2ccccc2c2ccccc21)CN1CCOCC1`, the displacement stood at 7.8%.

Regarding `Cc1ccc(N2C(=O)CC(N3CCN(c4ccccc4F)CC3)C2=O)cc1` (stereo not drawn), the displacement came out at 5.2%.

For the compound `O=C(CN(c1ccc(F)cc1)S(=O)(=O)c1ccccc1)Nc1ccccc1`, the displacement is 0.5%.

For the compound `COc1ccccc1CC(=O)Nc1cccc(C)c1C`, the displacement worked out at 2.7%.

`CCOC(=O)C1=C(C(=O)OCC)SC(=C2C(=S)C(C)(C)N(C(=O)CN3C(=O)CCC3=O)c3ccc(C)cc32)S1`: the displacement was -0.7%.

In the case of `CCOc1cc(/C=C2/NC(=S)NC2=O)ccc1OCc1ccc(Cl)cc1`, the displacement is 12.7%.

Regarding `O=C(c1ccc2c(c1)OCO2)N1CCN(CCN2C(=O)c3cccc4cccc(c34)C2=O)CC1`, the displacement is -2.5%.

As to `O=C(COc1ccc2cc(Br)ccc2c1Br)NCc1ccccc1`, the displacement is -0.9%.

In the case of `COc1ccc(CNC(=O)c2cccc(F)c2)cc1`, the displacement amounted to 9.6%.

For the compound `CCOC(=O)CSc1nc2sc3c(c2c(=O)n1-c1ccccc1)CCN(C)C3`, the displacement was -7.2%.

As for `COC(=O)C1(C(=O)OC)C(C)C1(C(=O)OC)C(=O)OC`, the displacement was 18.4%.

`O=C(CCN1C(=O)/C(=C/c2ccccc2)SC1=S)Nc1cccc(Cl)c1`: the displacement is 6%.

Regarding `CCOC(=O)c1c(NC(=O)C(Cc2ccccc2)N2C(=O)c3ccccc3C2=O)sc2c1CCCC2` (stereo not drawn), the displacement turned out to be 11.8%.

Turning to `CS(=O)(=O)N1CCN(C(=O)c2ccc(F)cc2)CC1`, the displacement turned out to be 9.2%.

In the case of `Cc1ccc(/C=C2/NC(=S)NC2=O)c(C)c1`, the displacement came out at 1%.

On to `COc1ccc(-c2nc3cc(NC(=S)NC(=O)c4ccc(Cl)cc4)ccc3o2)cc1OC`, for which the displacement is -8.5%.

As to `O=C(CCc1ccccc1)N1N=C(c2cccnc2)CC1(O)C(F)(F)F` (stereo not drawn), the displacement turned out to be 4.1%.

Regarding `COCCNC(=O)c1nn2c(c1Cl)NC(c1ccc(Br)cc1)CC2C(F)(F)F` (stereo not drawn), the displacement turned out to be 5.9%.

Consider `COc1cccc(C(=O)NCc2ccc3c(c2)OCO3)c1`, for which the displacement was -5.4%.

With `CN1CCN(CCCOc2cc(Cl)ccc2Cl)CC1`, the displacement is -7.1%.

With `CCOC(=O)C1=C(C)N=c2s/c(=C\c3ccc(N4CCOCC4)o3)c(=O)n2C1c1ccc(SC)cc1` (stereo not drawn), the displacement was -55.4%.

In the case of `O=C(Nc1ccccc1)Nc1nnc(-c2ccc([N+](=O)[O-])cc2)s1`, the displacement came out at 9.1%.

Consider `CN1CCN(NC(=O)c2sc3ccccc3c2Cl)CC1`, for which the displacement worked out at 3.6%.

With `O=C(CCc1ccccc1)Nc1nnc(-c2ccncc2)s1`, the displacement came to 5.8%.

Consider `[O-][n+]1cc(O)c(Br)c2ccccc21`, for which the displacement amounted to 3.2%.

Take `COc1cc2ccccc2cc1C(=O)Nc1cc(-c2nc3cc(C)ccc3o2)ccc1C`: the displacement turned out to be 19.3%.

As for `CS(=O)(=O)N(CC(=O)Nc1ccc(Oc2ccccc2)cc1)c1ccccc1`, the displacement was -6.7%.

For the compound `Cc1ccc(Cn2c(NC(=O)c3cccs3)nc3ccccc32)cc1`, the displacement is 0.8%.

As for `O=C(Nc1ccccc1C(=O)O)c1ccc2c(c1)C(=O)N(c1ccc(Cl)cc1)C2=O`, the displacement came to 17.3%.

For `COc1ccc2ccccc2c1C(=O)/C=C/c1cccnc1`, the displacement was -3.8%.

Regarding `CCOc1ccc(Cc2n[nH]c(=S)n2N)cc1`, the displacement was found to be 0.1%.

Take `CCOc1ccccc1NC(=O)c1ccc(C)c([N+](=O)[O-])c1`: the displacement came to 11.6%.

On to `O=C(N/N=C/c1ccccc1)c1cc(=O)[nH]c2ccccc12`, for which the displacement was -12.1%.

Turning to `O=C(O)c1cc(-c2ccc(C=C3C(=O)c4ccccc4C3=O)o2)ccc1O`, the displacement was -23.4%.

Consider `Cc1ccc(NC(=O)C(=O)NCCN2CCOCC2)c(C)c1`, for which the displacement worked out at 13.6%.

Take `O=C(CC(=O)c1ccccc1)Nc1ccc(C(=O)O)cc1`: the displacement was -5.3%.

`CCOc1ccccc1CN(CCc1ccc2c(c1)OCO2)Cc1ccc(OC)c(OC)c1`: the displacement was -15.5%.

As for `CN1C(=O)C(=Cc2ccccc2OC(=O)c2ccccc2)C(=O)N(C)C1=O`, the displacement was found to be 5.7%.

On to `O=C(Nc1ccc(F)cc1)c1cccc(I)c1`, for which the displacement came to 8.5%.

With `O=C(CCCN1C(=O)c2cccc3cccc(c23)C1=O)Nc1ccc(OC(F)F)cc1`, the displacement was -4%.

Regarding `CCCOc1ccc(N2C(=O)CC(N3CCN(c4cccc(C(F)(F)F)c4)CC3)C2=O)cc1` (stereo not drawn), the displacement worked out at 3.2%.

In the case of `Cc1ccc2c(c1)c1c(n2CCC(N)=O)C(=O)CCC1`, the displacement is -7.2%.

On to `Cc1ccccc1CNC(=O)C(C)Sc1ccc(Cl)cc1` (stereo not drawn), for which the displacement is -7.7%.

In the case of `COc1cccc(CN2CCN(C3CCCCC3)CC2)c1`, the displacement stood at 4.2%.

For `N=C1C(c2nc3ccccc3c(=O)[nH]2)=C(O)CN1Cc1ccccc1`, the displacement amounted to 3.1%.

Consider `Cc1oc(C(C)(C)C)cc1C(=O)Nc1cccc(O)c1`, for which the displacement amounted to 2.8%.

Regarding `Cc1c(NC(=O)c2nn3c(c2Cl)NC(c2cccs2)CC3C(F)(F)F)c(=O)n(-c2ccccc2)n1C` (stereo not drawn), the displacement was -0.6%.

`CSc1nc(C)c(CC(=O)c2ccc(Br)cc2)c(C)c1C#N`: the displacement was -16.1%.

For `CONC(=O)c1ccc(C(=O)c2cc(OC)ccc2OC)cc1`, the displacement was -6.6%.

In the case of `CN1C(N)=NC(=O)C12COC(c1cccnc1)OC2` (stereo not drawn), the displacement is 7.8%.

For the compound `Cc1ccc(/C=C/C(=O)N2CCN(c3ccc(Cl)cc3)CC2)cc1`, the displacement is -16%.

Take `O=C(/C=C/c1ccc(F)cc1)NC(=S)Nc1cccc(O)c1`: the displacement is 0.3%.

For `O=C(O)c1ccc([N+](=O)[O-])c2c1NC(C1CC=CCC1)C1CC=CC21` (stereo not drawn), the displacement came to 8.7%.

For `CCOC(=O)C(N)Cc1ccc(O)c([N+](=O)[O-])c1` (stereo not drawn), the displacement was 5.9%.

Take `CC1CCCCN1S(=O)(=O)c1ccccc1[N+](=O)[O-]` (stereo not drawn): the displacement is -5.5%.

In the case of `COc1ccccc1/C=C(\C#N)C(=O)Nc1ccc(F)cc1`, the displacement was -5.9%.

As to `NNC(=O)c1cc(-c2ccc(N)cc2)nc2ccc(Br)cc12`, the displacement is -9.7%.

As for `COC(=O)C1=C(C)N=c2s/c(=C\c3ccc(OC)cc3OC)c(=O)n2C1c1ccccc1` (stereo not drawn), the displacement came to 6.9%.

Consider `Cc1ccc(OCC(=O)NNC(=O)c2cccs2)c(C)c1`, for which the displacement came out at 1.1%.

Turning to `CCC(=O)N1c2ccccc2NC2=C(C(=O)CC(c3ccccc3)C2)C1c1cccnc1` (stereo not drawn), the displacement amounted to 2.5%.

With `NC(=O)c1sc2cc(F)ccc2c1Cl`, the displacement is -7.3%.

As for `O=C(Nc1nccs1)C1(c2ccccc2)CC1(Cl)Cl` (stereo not drawn), the displacement was -14.9%.

Regarding `Cc1cccc(C(=O)N2CCc3ccccc32)c1`, the displacement was -9.3%.

`Clc1cccc(Cl)c1SCCc1ccccn1`: the displacement stood at 0.3%.

Consider `O=C(O)C1C2C=CC(C2)C1C(=O)Nc1cccnc1` (stereo not drawn), for which the displacement was determined as 45.4%.

Regarding `COc1ccc(OC)c(NC(=S)NC(NC(=O)CC(C)C)C(Cl)(Cl)Cl)c1` (stereo not drawn), the displacement was -7.7%.

For the compound `O=C(Nc1ccccc1C(=O)N=Nc1c(O)[nH]c2ccc([N+](=O)[O-])cc12)c1ccccc1`, the displacement was -1.3%.

As for `O=C(/C=C/c1ccco1)Nc1ccc(Cl)cc1C(=O)O`, the displacement worked out at 12.2%.

As to `COC(=O)C1=C(C)N(C)C(C)=C(C(=O)OC)C1c1ccsc1`, the displacement is -8.7%.

Turning to `Cc1ccc(-c2nc3ncccc3o2)cc1N`, the displacement is 5.8%.

For `O=C(CC1S/C(=N\N=C\c2ccco2)NC1=O)Nc1ccccc1F` (stereo not drawn), the displacement is 8.6%.

Take `O=C(N=Nc1c(O)n(Cc2ccccc2)c2ccccc12)c1ccc2ccccc2n1`: the displacement worked out at 14.9%.

Consider `O=C(C1=C(O)C(=O)N(c2nncs2)C1c1cccc([N+](=O)[O-])c1)c1cccs1` (stereo not drawn), for which the displacement was found to be 7.1%.

Regarding `N#C/C(=C\c1ccc(-c2ccccc2F)o1)c1nn(-c2ccccc2)c(N)c1C#N`, the displacement worked out at 13.8%.

Take `Cc1c(NC(=O)C(C)Oc2ccccc2)cccc1NC(=O)C(C)Oc1ccccc1` (stereo not drawn): the displacement is 13.4%.

As to `CC1=C(C(=O)Nc2ccc(Cl)cc2)C(c2ccc(F)cc2)NC(=O)N1` (stereo not drawn), the displacement is 10.9%.

In the case of `COC(=O)c1cc(C(=O)NCc2ccccn2)cc([N+](=O)[O-])c1`, the displacement was 6.5%.

In the case of `CCCSc1nnc2n(-c3ccc(OC)cc3)c(=O)c3c4c(sc3n12)CCCC4`, the displacement is 34.9%.

In the case of `COc1ccccc1-c1coc2cc(OC(=O)c3c(C)cc(C)cc3C)ccc2c1=O`, the displacement came out at 16.9%.

With `Nc1n[nH]c(N)c1N=Nc1ccccc1F`, the displacement is -12.8%.

Regarding `CCOCCOC(=O)c1ccc(NC(=O)COc2ccc(C)cc2C)cc1`, the displacement is -9%.

`COc1ccc(Cl)cc1NS(=O)(=O)c1ccc2ccccc2c1`: the displacement was -6.5%.

Turning to `CSc1nnc(-c2ccccc2)c(-c2ccccc2)n1`, the displacement was -2.3%.

Take `CCOc1ccc2ccccc2c1/C=N/N1C(=O)C2C(C1=O)C1C=CC2C12CC2` (stereo not drawn): the displacement was determined as 4.8%.

In the case of `Cc1cc(OCC(O)CNC(C)C)ccc1C(C)C` (stereo not drawn), the displacement stood at 5.8%.

`Cc1ccc(NC(=O)c2ccc3ccccc3c2)c([N+](=O)[O-])c1`: the displacement came to 9.1%.

In the case of `CC1=NN(c2ccc(C(=O)O)cc2)C(=O)/C1=C\c1ccc(-c2cccc(C(=O)O)c2)o1`, the displacement was 13.4%.

Take `COc1ccc(OC)c(NC(=O)CN(c2cccc([N+](=O)[O-])c2)S(=O)(=O)c2ccccc2)c1`: the displacement was found to be 9.6%.

As to `CCOC(=O)C1=C(C)N=c2s/c(=C\c3ccncc3)c(=O)n2C1c1cccc(OC)c1` (stereo not drawn), the displacement is -17.5%.

With `COc1ccc(C(NC(C)=O)c2c(OC(C)=O)ccc3ccccc23)cc1OC` (stereo not drawn), the displacement was -18.9%.

In the case of `CC(C)(C)c1ccc(OCC(O)CS(=O)(=O)Cc2ccccc2)cc1` (stereo not drawn), the displacement was -16.7%.

Regarding `O=C1NC(=O)N(c2ccccc2)C(=O)/C1=C\C=C\c1cccc([N+](=O)[O-])c1`, the displacement is 9.8%.

As for `CC1CCc2c(sc(NC(=O)CCN3C(=O)c4ccccc4C3=O)c2C(N)=O)C1` (stereo not drawn), the displacement turned out to be 16%.

With `Cc1cc2ncn(C(=O)c3cc(-c4ccccc4)nc4ccccc34)c2cc1C`, the displacement is -8.9%.

As for `COC(=O)n1ccc(C(=O)Nc2ccc(C)cc2C)n1`, the displacement is -5.2%.

Consider `O=C(Nc1ccc(S(=O)(=O)N2CCCCCC2)cc1)c1cccs1`, for which the displacement is -1.4%.

On to `Cc1ccc2nc(/N=C(/N)NC(=O)Cc3ccc(Cl)cc3)nc(C)c2c1`, for which the displacement is -2.5%.
